# Experimental data published in PubChem BioAssay AID1476 (National Center for Advancing Translational Sciences (NCATS), 2009).
# About 4,500 (2.2%) of roughly 200,000 compounds were called active. The shares of active, inactive and inconclusive entries below differ from those in the screen. Calls come from the whole dose curve; as a rule, active = well fitted inhibition curve with a large enough effect; inconclusive = small, poorly fitted or top-dose-only effect, or effect the other way; inactive = flat fitted curve, though single readings scatter. Potencies beside an inconclusive call are fits to weak or partial responses and may not hold up.
# Target: Cruzipain (Trypanosoma cruzi) (UniProt P25779)
# Assay: qHTS Assay for Promiscuous and Specific Inhibitors of Cruzain (without detergent); note: nearly all actives have a fitted effect of over 40% in size;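 for max response, negative = inhibition: plate controls were enzyme without inhibitor for no effect and buffer without enzyme for full effect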
# Settings: purified cruzain, Z-FR-AMC fluorescence, no detergent
# How it was run: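 Detergent-free condition (0.00005% Triton X-100) in acetate buffer pH 5.5 with DTT. 1.5 nM enzyme and compound were pre-mixed 15 min, then 2 uM Z-FR-AMC substrate added; reaction progress from fluorescence change between first and third reads (60 s).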
# Potency is the fitted concentration of half-maximal effect; tags give direction and shape of the fitted curve.
# Chain of UniProt P25779 (P25779 whole entry, looked up): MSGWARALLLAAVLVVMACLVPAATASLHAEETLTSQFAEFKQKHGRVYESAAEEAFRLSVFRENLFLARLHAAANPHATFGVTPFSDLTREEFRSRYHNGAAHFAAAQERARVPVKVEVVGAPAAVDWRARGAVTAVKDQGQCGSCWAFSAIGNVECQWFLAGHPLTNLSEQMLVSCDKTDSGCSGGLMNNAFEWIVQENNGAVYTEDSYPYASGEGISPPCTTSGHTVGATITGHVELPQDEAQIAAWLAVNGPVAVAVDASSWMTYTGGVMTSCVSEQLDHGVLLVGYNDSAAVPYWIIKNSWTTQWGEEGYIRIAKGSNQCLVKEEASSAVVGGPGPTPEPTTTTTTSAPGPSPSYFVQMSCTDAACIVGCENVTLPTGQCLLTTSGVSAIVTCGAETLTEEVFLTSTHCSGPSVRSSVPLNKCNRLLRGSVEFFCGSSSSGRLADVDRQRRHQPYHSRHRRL
SMILES,Potency,"max response, negative = inhibition"
N#C/C(=C\C1=C(N2CCOCC2)C(=C\c2ccccc2)/CC1)C(=O)Nc1ccccc1F,"inconclusive: 39.8 µM [inhibitor, single point]",
Cc1ccc(N(C(=O)CS(=O)CC(=O)Nc2ccc(F)cc2)C(C(=O)NC2CCCCC2)c2ccco2)cc1 (configuration not stated),"inconclusive: 39.8 µM [inhibitor, single point]",
Cc1noc(NS(=O)(=O)c2ccc(NC(=O)CSc3nnc(-c4ccccc4)n3C3CCCCC3)cc2)c1C,"inconclusive: 25.1 µM [activator, partial curve]",
COc1ccc(-c2nc(CS(=O)CC(=O)NCc3ccc(Cl)cc3)c(C)o2)cc1 (configuration not stated),"inconclusive: 39.8 µM [activator, single point]",
Cc1cccc(C)c1OCC(=O)Nn1c(COc2ccccc2)nc2ccccc2c1=O,"inconclusive: 3.16 µM [activator, single point]",
Cc1cn2c(=O)cc(COC(=O)c3cccc(NC(=O)c4ccccc4C)c3)nc2s1,,inactive: -2.45%
COc1ccc(C(=O)COC(=O)C(Cc2c[nH]c3ccccc23)NC(=O)c2ccc(C(C)(C)C)cc2)cc1 (configuration not stated),active: 12.6 µM,
O=C1c2[nH]nc(-c3ccccc3O)c2C(c2cccc(OCc3ccccc3)c2)N1CCO (configuration not stated),"inconclusive: 25.1 µM [inhibitor, single point]",
Cc1cc2cc(C)c3nnc(SCC(=O)NCc4ccc5c(c4)OCO5)n3c2cc1C,"inconclusive: 39.8 µM [activator, single point]",
COc1ccc(CNC(=O)C2CCCN(c3nc4ccccc4o3)C2)c(OC)c1 (configuration not stated),"inconclusive: 31.6 µM [activator, single point]",
CS(=O)(=O)c1ccc2nc(NC(=O)Nc3ccc(Cl)c(Cl)c3)sc2c1,active: 10 µM,
CCOC(=O)c1c(C)[nH]c(C)c1S(=O)(=O)N1CCN(c2cccc(C(F)(F)F)c2)CC1,"inconclusive: 31.6 µM [activator, single point]",
COc1ccnc(NCc2cccc(C(F)(F)F)c2)c1C#N,"inconclusive: 31.6 µM [inhibitor, single point]",
COc1cc2c(cc1NC(=S)Nc1cccc3ccccc13)oc1ccccc12,active: 10 µM,
COc1ccc(Nc2nnc(SCc3cc([N+](=O)[O-])cc4c3OCOC4)s2)cc1,active: 20 µM,
Cc1ccc(CO/N=C\Cc2snc(Sc3ncc(C(F)(F)F)cc3Cl)c2C#N)cc1,active: 3.98 µM,
CCC(NS(=O)(=O)c1ccc(OC)cc1)C(=O)O (configuration not stated),"inconclusive: 3.98 µM [inhibitor, single point]",
